{
  "source": "the supplement of paper PMC12217912",
  "parents": {"B1": {"name": "TEV protease; numbered along this chain (parent)", "chain": "MGESLFKGPRDYNPISSSICHLTNESDGHTTSLYGIGFGPFIITNKHLFRRNNGTLVVQSLHGVFKVKDTTTLQQHLVDGRDMIIIRMPKDFPPFPQKLKFREPQREERICLVTTNFQTKSMSSMVSDTSCTFPSGDGIFWKHWIQTKDGQCGSPLVSTRDGFIVGIHSASNFTNTNNYFTSVPKNFMELLTNQEAQQWVSGWRLNADSVLWGGHKVFMVKPEEPFQPVKEATQL"}},
  "note": "This is one part of the list. The full chains were built here from the parent and the listed change. Inactive controls read about 0.05.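 Also: Bxb1 expression induced with 0.2% (w/v) L-rhamnose at OD600 near 0.5, cultures sampled hourly, flipped fraction per protease–substrate barcode pair counted by paired-end Illumina sequencing.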",
  "data": [
    {"variants_of": "B1", "experiment": "raw area under fraction-flipped curve 0-4 h after induction (AUC4h, not background-subtracted), DNA-recorder readout of cleavage of the substrate (dimensionless); higher = more cleavage of the substrate by the protease variant", "conditions": "temperature: 34 °C; time window: 0-4 h after rhamnose induction", "values": [
      {"variant": "MGESLFKGPRDYNPISSSICHLTNESDGHTTSLYGIGFGPFIITNKHLFRRNNGTLVVQSLHGVFKVKDTTTLQQHLVDGRDMIIIRMPKDFPPFPQKLKFREPQREERICLVTTNFQTKSMSSMVSDTSCTFPSGDGIFWKHWIQTKDGQCGSPLVSTRDGFIVGIHSASNFTNTNNYFTSVPKNFMELLTNQEAEQWVSGWRLNADSVLWGGHKVFMVKPEEPFQPVKEATQL", "note": "[Q197E]", "area with substrate ENCYFQS": 0.0806, "area with substrate ENFYFQS": 0.0473, "area with substrate ENGYFQS": 0.0805, "area with substrate ENIYFQS": 0.0768, "area with substrate ENKYFQS": 0.063, "area with substrate ENMYFQS": 0.066, "area with substrate ENNYFQS": 0.0894, "area with substrate ENPYFQS": 0.0651, "area with substrate ENSYFQS": 0.0889, "area with substrate ENVYFQS": 0.0799, "area with substrate ENWYFQS": 0.003},
      {"variant": "MGESLFKGPRDYNPISSSICHLTNESDGHTTSLYGIGFGPFIITNKHLFRRNNGTLVVQSLHGVFKVKDTTTLQQHLVDGRDMIIIRMPKDFPPFPQKLKFREPQREERICLVTTNFQTKSMSSMVSDTSCTFPSGDGIFWKHWIQTKDGQCGSPLVSTRDGFIVGIHSASNFTNTNNYFTSVPKNFMELLTNQEAFQWVSGWRLNADSVLWGGHKVFMVKPEEPFQPVKEATQL", "note": "[Q197F]", "area with substrate ENCYFQS": 0.0568, "area with substrate ENDYFQS": 0.061, "area with substrate ENEYFQS": 0.0493, "area with substrate ENFYFQS": 0.0629, "area with substrate ENGYFQS": 0.0445, "area with substrate ENNYFQS": 0.0822, "area with substrate ENPYFQS": 0.047, "area with substrate ENQYFQS": 0.0592, "area with substrate ENSYFQS": 0.0708, "area with substrate ENTYFQS": 0.0589, "area with substrate ENVYFQS": 0.0822},
      {"variant": "MGESLFKGPRDYNPISSSICHLTNESDGHTTSLYGIGFGPFIITNKHLFRRNNGTLVVQSLHGVFKVKDTTTLQQHLVDGRDMIIIRMPKDFPPFPQKLKFREPQREERICLVTTNFQTKSMSSMVSDTSCTFPSGDGIFWKHWIQTKDGQCGSPLVSTRDGFIVGIHSASNFTNTNNYFTSVPKNFMELLTNQEAQQMVSGWRLNADSVLWGGHKVFMVKPEEPFQPVKEATQL", "note": "[W199M]", "area with substrate ENCYFQS": 0.0791, "area with substrate ENDYFQS": 0.058, "area with substrate ENEYFQS": 0.0602, "area with substrate ENFYFQS": 0.0605, "area with substrate ENGYFQS": 0.0559, "area with substrate ENIYFQS": 0.0644, "area with substrate ENKYFQS": 0.0389, "area with substrate ENMYFQS": 0.0922, "area with substrate ENPYFQS": 0.0626, "area with substrate ENQYFQS": 0.0611, "area with substrate ENVYFQS": 0.0535},
      {"variant": "MGESLFKGPRDYNPISSSICHLTNESDGHTTSLYGIGFGPFIITNKHLFRRNNGTLVVQSLHGVFKVKDTTTLQQHLVDGRDMIIIRMPKDFPPFPQKLKFREPQREERICLVTTNFQTKSMSSMVSDTSCTFPSGDGIFWKHWIQTKDGQCGSPLVSTRDGFIVGIHSASNFTNTNNYFTSVPKNFMELLTNQEAQQWRSGWRLNADSVLWGGHKVFMVKPEEPFQPVKEATQL", "note": "[V200R]", "area with substrate ENCYFQS": 0.0629, "area with substrate ENEYFQS": 0.0488, "area with substrate ENQYFQS": 0.0643, "area with substrate ENRYFQS": 0.0417, "area with substrate ENSYFQS": 0.0611},
      {"variant": "MGESLFKGPRDYNPISSSICHLTNESDGHTTSLYGIGFGPFIITNKHLFRRNNGTLVVQSLHGVFKVKDTTTLQQHLVDGRDMIIIRMPKDFPPFPQKLKFREPQREERICLVTTNFQTKSMSSMVSDTSCTFPSGDGIFWKHWIQTKDGQCGSPLVSTRDGFIVGIHSASNFTNTNNYFTSVPKNFMELLTNQEAQQWVYGWRLNADSVLWGGHKVFMVKPEEPFQPVKEATQL", "note": "[S201Y]", "area with substrate ENCYFQS": 0.0706, "area with substrate ENDYFQS": 0.0567, "area with substrate ENEYFQS": 0.0954, "area with substrate ENIYFQS": 0.0962, "area with substrate ENNYFQS": 0.0651, "area with substrate ENPYFQS": 0.0724, "area with substrate ENQYFQS": 0.0563, "area with substrate ENRYFQS": 0.0199, "area with substrate ENSYFQS": 0.0567, "area with substrate ENVYFQS": 0.05},
      {"variant": "MGESLFKGPRDYNPISSSICHLTNESDGHTTSLYGIGFGPFIITNKHLFRRNNGTLVVQSLHGVFKVKDTTTLQQHLVDGRDMIIIRMPKDFPPFPQKLKFREPQREERICLVTTNFQTKSMSSMVSDTSCTFPSGDGIFWKHWIQTKDGQCGSPLVSTRDGFIVGIHSASNFTNTNNYFTSVPKNFMELLTNQEAQQWVSGWRANADSVLWGGHKVFMVKPEEPFQPVKEATQL", "note": "[L205A]", "area with substrate ENCYFQS": 0.0528, "area with substrate ENFYFQS": 0.0738, "area with substrate ENHYFQS": 0.0579, "area with substrate ENIYFQS": 0.0794, "area with substrate ENKYFQS": 0.056, "area with substrate ENQYFQS": 0.0422, "area with substrate ENSYFQS": 0.0526, "area with substrate ENVYFQS": 0.0507},
      {"variant": "MGESLFKGPRDYNPISSSICHLTNESDGHTTSLYGIGFGPFIITNKHLFRRNNGTLVVQSLHGVFKVKDTTTLQQHLVDGRDMIIIRMPKDFPPFPQKLKFREPQREERICLVTTNFQTKSMSSMVSDTSCTFPSGDGIFWKHWIQTKDGQCGSPLVSTRDGFIVGIHSASNFTNTNNYFTSVPKNFMELLTNQEAQQWVSGWRLKADSVLWGGHKVFMVKPEEPFQPVKEATQL", "note": "[N206K]", "area with substrate ENCYFQS": 0.0475, "area with substrate ENEYFQS": 0.0613, "area with substrate ENGYFQS": 0.0816, "area with substrate ENSYFQS": 0.0342},
      {"variant": "MGESLFKGPRDYNPISSSICHLTNESDGHTTSLYGIGFGPFIITNKHLFRRNNGTLVVQSLHGVFKVKDTTTLQQHLVDGRDMIIIRMPKDFPPFPQKLKFREPQREERICLVTTNFQTKSMSSMVSDTSCTFPSGDGIFWKHWIQTKDGQCGSPLVSTRDGFIVGIHSASNFTNTNNYFTSVPKNFMELLTNQEAQQWVSGWRLNLDSVLWGGHKVFMVKPEEPFQPVKEATQL", "note": "[A207L]", "area with substrate ENCYFQS": 0.0769, "area with substrate ENDYFQS": 0.0623, "area with substrate ENFYFQS": 0.0591, "area with substrate ENHYFQS": 0.0713, "area with substrate ENMYFQS": 0.099, "area with substrate ENPYFQS": 0.0445, "area with substrate ENSYFQS": 0.0611, "area with substrate ENVYFQS": 0.0641, "area with substrate ENYYFQS": 0.0587},
      {"variant": "MGESLFKGPRDYNPISSSICHLTNESDGHTTSLYGIGFGPFIITNKHLFRRNNGTLVVQSLHGVFKVKDTTTLQQHLVDGRDMIIIRMPKDFPPFPQKLKFREPQREERICLVTTNFQTKSMSSMVSDTSCTFPSGDGIFWKHWIQTKDGQCGSPLVSTRDGFIVGIHSASNFTNTNNYFTSVPKNFMELLTNQEAQQWVSGWRLNAGSVLWGGHKVFMVKPEEPFQPVKEATQL", "note": "[D208G]", "area with substrate ENCYFQS": 0.0541, "area with substrate ENDYFQS": 0.0387, "area with substrate ENFYFQS": 0.0545, "area with substrate ENGYFQS": 0.0546, "area with substrate ENHYFQS": 0.0636, "area with substrate ENNYFQS": 0.0612, "area with substrate ENQYFQS": 0.0584, "area with substrate ENSYFQS": 0.0545, "area with substrate ENVYFQS": 0.0704, "area with substrate ENYYFQS": 0.0674},
      {"variant": "MGESLFKGPRDYNPISSSICHLTNESDGHTTSLYGIGFGPFIITNKHLFRRNNGTLVVQSLHGVFKVKDTTTLQQHLVDGRDMIIIRMPKDFPPFPQKLKFREPQREERICLVTTNFQTKSMSSMVSDTSCTFPSGDGIFWKHWIQTKDGQCGSPLVSTRDGFIVGIHSASNFTNTNNYFTSVPKNFMELLTNQEAQQWVSGWRLNADSVLWGGHKVYMVKPEEPFQPVKEATQL", "note": "[F218Y]", "area with substrate ENCYFQS": 0.0746, "area with substrate ENEYFQS": 0.0585, "area with substrate ENSYFQS": 0.0421, "area with substrate ENYYFQS": 0.0769}
    ]}
  ]
}
